The text below walks through data of article PMC12136788.

T1: UNK ZnF1-3 (human, UniProt Q9C0B0 31-174)
T1 sequence: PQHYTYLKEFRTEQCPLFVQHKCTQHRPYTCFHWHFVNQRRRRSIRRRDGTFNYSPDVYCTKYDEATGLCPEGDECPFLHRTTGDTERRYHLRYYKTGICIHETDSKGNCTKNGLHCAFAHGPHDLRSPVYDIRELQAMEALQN

B1: 47634244_47646829_185_3pUTR_ENSG00000142230_ENST00000270225|human|control|control (ssRNA)
RNA: GGGAGUUCUACAGUCCGACGAUCUCCUGCCAAGAUGAGAUUCUUGGCAAUUUCAGCCCCAAGUCCUUUCAAGCCGACAAGAAGCACCCGAGAGGCCCGCAGCCGUUUCUGGGCCUCCAGUCCCCACAGGCGGAUCUGCCGGUCCAACAGAGGAUUGAGCAUCA
B2: chr13:95058138:95058139:+_ENSG00000183098_ENST00000377047|hu_hu|FALSE|FALSE (ssRNA)
RNA: GGGAGUUCUACAGUCCGACGAUCAUUUCUCAUGUUAAAUUAGUCUGAAAAUCAUAUGACAUAGUAGUAUGAUGAUAAAAACUAGGAAGUACAACUUGAAUGAUAUUUUGACCACAUCCAUGCAGGGUGCUAACACUGUGACAUCAACAGAGGAUUGAGCAUCA
B3: chr15:76912013:76912014:-_ENSMUSG00000033565_ENSMUST00000166610|mus_mus|FALSE|FALSE (ssRNA)
RNA: GGGAGUUCUACAGUCCGACGAUCGCUCUCAGUGCUCACCCUGAAAUCCAACGACCUUUGCAUAAAAAGCCAACUCCAUCUAGUCUUCCUUGGAAAAGGGCCUGAGGAAGUGGCAUCGGAGAGUGUCCUUGUCCACGCAGCAGACAACAGAGGAUUGAGCAUCA
B4: chr9:116041357:116041358:+_ENSG00000136875_ENST00000374198|hu_hu|FALSE|FALSE (ssRNA)
RNA: GGGAGUUCUACAGUCCGACGAUCUUCUCUUCUUUCAGCAGGACCCUCUCCAAAAAGUGUGAUGGGUUCCCCCAAGGCUCUAAGGCAAGCUUUGACCUCUGAGUCAUCUGUGGAAACAUUGAUCUGCCGGGCUCGCUUCCUUCUCAACAGAGGAUUGAGCAUCA
B5: 31452972_31454240_1324_CDS_ENSG00000134644_ENST00000257075|human|control|control (ssRNA)
RNA: GGGAGUUCUACAGUCCGACGAUCGAUGUAUGGAUUGGGGACAAACGCAGCGGGAGCUAAACCGAUGUGCGGCUGAUGAGCAGCUGCCAGUGCAUACUGCUGCUGCUGAGCAGCUGUCAACUGCUGGACAGCAAGCGCAUUAGGCAACAGAGGAUUGAGCAUCA
B6: chr4:76721835:76721836:+_ENSG00000138768_ENST00000264904|hu_mus|hu_hu_hu_mus_True|48_108 (ssRNA)
RNA: GGGAGUUCUACAGUCCGACGAUCGUUGGCUGGGGUUUUCUGAGACGCUCUGGAAUAUAACUCAUGUUUGCUAAUAAAUCCUAGUUUUCUAUGAAAUUUCUCUUUGCCAAUCCUCUUCUCUAUUAGUUGCUUUAGUUUCUCUUUCAACAGAGGAUUGAGCAUCA
B7: chr4:40912178:40912179:+_ENSMUSG00000028419_ENSMUST00000030128|mus_mus|FALSE|FALSE (ssRNA)
RNA: GGGAGUUCUACAGUCCGACGAUCACAGUUCAUUCCAACAGUAGAUCGUGUAAUGACUUGCUCACAUGACACAACAAAAUCUAUCAAAAGAGGCCAUGACUUAAACCCAUCUACAAUACCACAACAGACAAGGGUUCUGAAGCACAACAGAGGAUUGAGCAUCA
B8: chr5:65987834:65987835:+_ENSMUSG00000029203_ENSMUST00000142407|mus_mus|FALSE|FALSE (ssRNA)
RNA: GGGAGUUCUACAGUCCGACGAUCGUUAUUUCACACAUUUCCUUCUUAUCUGAGAAUAUAAAGAACAGUACAAAGUUUUAGCUACUUAAAAUAAAUAAAGAAAAACUUGUUUCCUUUGGCAUCUUUAUAAAAUAACCUACAGCACAACAGAGGAUUGAGCAUCA
B9: chr4:40912178:40912179:+_ENSMUSG00000028419_ENSMUST00000030128|mus_hu|FALSE|FALSE (ssRNA)
RNA: GGGAGUUCUACAGUCCGACGAUCUAAUUCCAUUCCAAUAAUGGACACAGUAACGACUUGUUCACAAGACACAACAAAACCCAUCAAAAAGGCCAUCACUUUAACCAACCUAUAAUACCACAAUAGAAAAUGAUUCUGAAUCAUCAACAGAGGAUUGAGCAUCA
B10: 12254499_12254619_310_CDS_ENSG00000106460_ENST00000396668|human|control|control (ssRNA)
RNA: GGGAGUUCUACAGUCCGACGAUCGCAGGUGACACUAUCUCUUCCUGUAAAUUCCACAUAUGGAAACUGAGAGACAUCUCCAUUUCUUCCAUCUUCAUUAUGGACUUCACUAUUAACCAGUCCAUUCCUCAUGUUUUCAGAUGUCAACAGAGGAUUGAGCAUCA
B11: chr4:95690885:95690886:+_ENSMUSG00000028572_ENSMUST00000156910|mus_mus|mus_mus_mus_hu_False|1_98 (ssRNA)
RNA: GGGAGUUCUACAGUCCGACGAUCUUUAGAAAAUGUUAAUGUUAAAUCUAAAAUAUUUUCAAAGGCUUAUUUUAUUUUACCAGAAGUCACAGGCAAGCAGACACUACAAGAAUAUAUGAAAAUGAAACUCAACAAUAAAAUGUACAACAGAGGAUUGAGCAUCA
B12: chr6:38652254:38652255:-_ENSG00000124767_ENST00000373365|hu_hu|hu_hu_hu_mus_False|28_88 (ssRNA)
RNA: GGGAGUUCUACAGUCCGACGAUCCGAGAACUUCAUAGCAGGGAAGUCACAUUUUUGCAGGAGGGUCAGUCCAAGAACCCUCGUAUAAAAAUCCAGGGACUUCUUAGGAUCCUUCACUCUUAGCAUCGUUUGCUGCAGUAGAAACAACAGAGGAUUGAGCAUCA
B13: chr7:91259230:91259231:-_ENSMUSG00000038459_ENSMUST00000117085|mus_hu|motif|central (ssRNA)
RNA: GGGAGUUCUACAGUCCGACGAUCCCCUUCAACCCAAAGGGGCUCCACGGCUCGGGGACAGCGCUCGUACAUCGCGGGGCCAUGGGAGAAAUCGAUGACCUCAUCCUCUGUACCAUGAAUGACCAACACAGGAGAGGUGACUUUCAACAGAGGAUUGAGCAUCA
B14: chr1:60041781:60041782:+_ENSMUSG00000041040_ENSMUST00000036540|mus_hu|mus_mus_mus_hu_False|48_88 (ssRNA)
RNA: GGGAGUUCUACAGUCCGACGAUCAAGUUUACAAUAGUAAAGUAAAUCAAAUUUAGUCAAAUUUUCUUUUAUUUUCCUUCACAAAAGAAAACCUCAGUAACCCAGUCCUAGUCUUGGACAUAGUGAAAGCUAUAAAUUCUGACUCAACAGAGGAUUGAGCAUCA
B15: chr4:4691572:4691573:-_ENSMUSG00000066324_ENSMUST00000084949|mus_mus|FALSE|FALSE (ssRNA)
RNA: GGGAGUUCUACAGUCCGACGAUCAAAGAUUAGGGUUUUUCUACACAGUUUUAAGACAGAGCCAUUCUGCAGGUAUAUCACUAAAAACAUCUUACUUGGACCUAAAAUGAAAACACUACUAAUGUUUCUACACAGCAGUAAUAUCAACAGAGGAUUGAGCAUCA
B16: chr3:9412954:9412955:+_ENSG00000134077_ENST00000452837|hu_mus|hu_hu_hu_mus_False|58_108 (ssRNA)
RNA: GGGAGUUCUACAGUCCGACGAUCGGUUGAUACAUCCUCUUUGAUGGCUGGAUUUUCAUAAUAGUCCAAGAUAUGUGAAUCUAAAGCGCUGCUGGCAUGCUUUUUCUUACCAUCUUUCUCAUCUGCUUUGUCUCCUUGUCCACACAACAGAGGAUUGAGCAUCA
B17: chr7:141445308:141445309:+_ENSG00000106028_ENST00000265304|hu_hu|hu_hu_hu_mus_False|8_98 (ssRNA)
RNA: GGGAGUUCUACAGUCCGACGAUCUAUGAUUGUUGUUGCUUGUCGCCUCACAUUGUUUUUAUCCAUGUACUCGCCAUAGUCCACUUUCCCUUCCACAAAUAUACGAGCCCCCUUUUUCACAUACUGAUAUGCCACGUCUCUGAGCAACAGAGGAUUGAGCAUCA
B18: chr1:84754351:84754352:-_ENSMUSG00000026219_ENSMUST00000027421|mus_hu|motif|central (ssRNA)
RNA: GGGAGUUCUACAGUCCGACGAUCAGCAUGAUUUUUCAGAACAUCCUUCAGAAGUUCAGCAUCCGCAAAAUAAAUUAUCCGGAGAAUUGCUCUAAGGCACUUAUGUCUGACCGCAGGUCCUGCUGAGGAACUAUACACUUCAUACAACAGAGGAUUGAGCAUCA
B19: chr3:176767854:176767855:-_ENSG00000177565_ENST00000430069|hu_hu|hu_hu_hu_mus_False|18_98 (ssRNA)
RNA: GGGAGUUCUACAGUCCGACGAUCGACAUCCUUGUUACUUGGAACAUCCUGCCCUCCUUCCCGUAUGCAGUGUCUAAGCACGAGCUGCGUAGGGCCACUCGUGCUGUUCUCACUGAGAUUCCAUAUUCUUGCCGUGGAGUCUCCCAACAGAGGAUUGAGCAUCA
B20: chr17:30526466:30526467:+_ENSG00000126858_ENST00000394692|hu_hu|motif|central (ssRNA)
RNA: GGGAGUUCUACAGUCCGACGAUCGUAAGGGAAAACUUUAAAUAAAUCUUUAAGCUCAUCAGGUGACAAAGCACAGUCUCGGUCCAAAUCAUGCUUGUCAAAGGUGCUUUGGAGAAAUAAAUAUGCAUGAUGAUUUAAUUCAGUCAACAGAGGAUUGAGCAUCA
B21: chr1:94914393:94914394:-_ENSMUSG00000014602_ENSMUST00000171796|mus_mus|FALSE|FALSE (ssRNA)
RNA: GGGAGUUCUACAGUCCGACGAUCCCUUUAUUGCUCCAUUUUGGGAACUGUUCCCUCAGAAGGGUGACUUCUGAAUUGUCUAAGUCUCAGAACUUGCACAACCUCUCACACACGUACCAUGCAAGGUGCAUCUCAGACAAAACUCAACAGAGGAUUGAGCAUCA
B22: chr15:98780342:98780343:-_ENSMUSG00000072235_ENSMUST00000097014|mus_mus|FALSE|FALSE (ssRNA)
RNA: GGGAGUUCUACAGUCCGACGAUCUUAUUUAAAACCCAUAAGUGAAAUGGGCAGCUUGGGUCUCUGUCAAAUCAAUCAUUCAUAAGUCAGUAACUGUAUGAAAGCACACAUUGCCACAUACAAAUUAACUGAUCAGACCACAACCAACAGAGGAUUGAGCAUCA

Some of the results follow.

This assay has as its target T1, UNK ZnF1-3. Description: nsRBNS (natural sequence RNA bind-n-seq); RBNS binding buffer (assumed for nsRBNS): 25 mM Tris pH 7.5, 150 mM KCl, 3 mM MgCl2, 0.01% Triton X-100, 500 ug/ml BSA, 20 U/ml SUPERase-In, 4 C; UNK is unkempt and MSI1 is Musashi-1; names of the RNAs are library labels; protein concentration not given here; high values mean tight binding.
Regarding B1, the binding signal was found to be 0.291 enrichment R.
The molecule B2 displayed a binding signal of 0.855 enrichment R.
In the case of B3, the binding signal worked out at 1.36 enrichment R.
B4: the binding signal came to 0.776 enrichment R.
The figure for B5 is 0.752 enrichment R.
Consider B6, for which the binding signal came to 0.529 enrichment R.
Take B7: the binding signal was 1.5 enrichment R.
B8 yielded a binding signal of 0.795 enrichment R.
As for B9, the binding signal is 1.26 enrichment R.
With B10, the binding signal is 0.607 enrichment R.
In turn, B11 came in with a binding signal of 1.66 enrichment R.
In turn, B12 gave a binding signal of 0.65 enrichment R.
In turn, B13 registered a binding signal of 1.12 enrichment R.
Turning to B14, the binding signal was 0.801 enrichment R.
The figure for B15 is 0.859 enrichment R; for B16 it is 0.493 enrichment R.
The figure for B17 is 0.654 enrichment R; for B18 it is 2.25 enrichment R; for B19 it is 0.541 enrichment R.
On to B20, for which the binding signal was 0.969 enrichment R.
Consider B21, for which the binding signal was found to be 0.73 enrichment R.
In turn, B22 yielded a binding signal of 0.907 enrichment R.
